Results from the supplement of paper PMC3334620.
In all, about 33,000 sequences were measured (“E-score (-0.5 to 0.5)”: median about -0.035, highest 2% from about 0.35 on). This is one part of the list.

target: T1, Pdr3 (UniProt P33200); assay: PBM E-score (8-mer binding enrichment) (E-score (-0.5 to 0.5)); higher = stronger / more preferred TF binding; most listed sequences are background and not binding sites; conditions: protein concentration: 200 nM; construct: GST-full length
T1 sequence: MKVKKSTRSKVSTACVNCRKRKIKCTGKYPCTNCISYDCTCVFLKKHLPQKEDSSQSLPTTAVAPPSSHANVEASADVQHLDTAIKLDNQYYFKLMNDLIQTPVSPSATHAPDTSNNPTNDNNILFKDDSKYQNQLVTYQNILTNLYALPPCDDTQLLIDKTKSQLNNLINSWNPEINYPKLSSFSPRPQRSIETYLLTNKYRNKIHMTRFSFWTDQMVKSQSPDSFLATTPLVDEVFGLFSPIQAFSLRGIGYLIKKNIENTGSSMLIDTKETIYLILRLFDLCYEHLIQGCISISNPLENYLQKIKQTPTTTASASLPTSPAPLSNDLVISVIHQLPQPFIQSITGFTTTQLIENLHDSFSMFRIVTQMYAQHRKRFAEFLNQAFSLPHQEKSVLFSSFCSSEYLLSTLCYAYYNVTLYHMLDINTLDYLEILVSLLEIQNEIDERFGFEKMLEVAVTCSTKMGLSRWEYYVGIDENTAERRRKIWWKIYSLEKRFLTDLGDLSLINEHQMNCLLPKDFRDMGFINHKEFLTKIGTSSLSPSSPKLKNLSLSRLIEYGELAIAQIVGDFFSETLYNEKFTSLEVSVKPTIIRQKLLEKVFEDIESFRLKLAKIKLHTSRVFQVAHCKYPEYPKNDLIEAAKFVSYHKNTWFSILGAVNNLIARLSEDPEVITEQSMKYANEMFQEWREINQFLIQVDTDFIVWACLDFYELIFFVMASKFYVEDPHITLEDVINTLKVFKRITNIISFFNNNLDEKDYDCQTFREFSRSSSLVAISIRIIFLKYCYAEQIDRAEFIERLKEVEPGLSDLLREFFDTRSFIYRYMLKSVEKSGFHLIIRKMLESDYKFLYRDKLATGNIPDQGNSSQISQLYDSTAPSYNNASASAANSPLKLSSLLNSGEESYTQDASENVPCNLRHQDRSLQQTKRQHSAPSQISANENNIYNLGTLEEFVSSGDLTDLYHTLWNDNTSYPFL
Description: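 Universal 'all 10-mer' protein binding microarrays (Agilent AMADID 015681) probed with GST-tagged S. cerevisiae TFs (full-length or DBD) made by in vitro transcription/translation (PURExpress), about 100-200 nM. Bound TF was detected with fluorescent anti-GST. Each ungapped 8-mer (which stands for itself and its reverse complement) is scored by the PBM enrichment score (E-score), a modified Wilcoxon-Mann-Whitney statistic from -0.5 to +0.5, computed with the Universal PBM Analysis Suite. Scale: above 0.35 generally sequence-specific binding.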

| Sequence | PBM E-score |
| --- | --- |
| ACGCCACT | -0.00222 |
| GATAATTA | 0.16 |
| CACTGACG | -0.0968 |
| CGCTCAAA | 0.00172 |
| CCGTTCTC | 0.0763 |
| AAATAGGA | -0.0294 |
| AACTGCTG | -0.0417 |
| AGAGGGTA | -0.16 |
| CGCAGCCG | 0.221 |
| AAAATTGA | -0.152 |
| AGTTTGCC | -0.0284 |
| CCCTACCA | -0.148 |
| CTACTGTA | -0.136 |
| TGGTCTAA | -0.253 |
| GACAGGCC | 0.0678 |
| GCGGCAGA | 0.107 |
| CGAAAGGC | -0.00797 |
| GATTGTGA | 0.0389 |
| GACAGCTC | -0.0324 |
| GTTGAGCA | 0.0323 |
| GAAAGGAC | 0.143 |
| CGAAGCGC | 0.117 |
| TACTCTCA | -0.16 |
| CCGAGCCC | 0.116 |
| CGCCGGTC | 0.21 |

| Sequence | PBM E-score |
| --- | --- |
| ATAGTTAA | -0.038 |
| CCTGAGAG | -0.256 |
| AAGCCACC | -0.181 |
| ACCCGTTC | 0.285 |
| AATTGGCT | 0.0615 |
| CGTTTAAC | -0.117 |
| ACTAAACT | -0.121 |
| CGAGCTAG | 0.0187 |
| ATGACAAA | -0.0898 |
| ATCTAACC | 0.122 |
| AGAGGACA | -0.0484 |
| CGAAGGCG | 0.114 |
| GTGTCATA | -0.0195 |
| ATCGCGAC | 0.0765 |
| AGTTCGCA | 0.0197 |
| AACCGCAT | 0.106 |
| CCCAACGG | 0.16 |
| ACTTGGAA | -0.156 |
| ATCTGGCA | -0.111 |
| CCAGACGA | 0.027 |
| ACGGCAAG | 0.0406 |
| AATGCCAC | -0.0043 |
| GTCGTATA | -0.0633 |
| AAGGAGCT | -0.218 |
| CTACATGC | -0.149 |

| Sequence | PBM E-score |
| --- | --- |
| ACATCGGC | 0.145 |
| GCATTCAC | 0.118 |
| ACAATAGT | -0.0518 |
| AAGAATAA | -0.138 |
| AACAGACG | 0.0207 |
| AAACTTCG | -0.0284 |
| GCAAAGAC | -0.15 |
| AGGGCTCC | -0.108 |
| GGGACATA | 0.171 |
| ATCTCATG | -0.0344 |
| CCTTGTCG | -0.272 |
| AATGGAAC | 0.0897 |
| AAGAATAG | -0.0593 |
| ACCAGAGC | 0.0757 |
| AACTCAAG | -0.0399 |
| AGTTGGTA | -0.111 |
| ACTTGGCG | -0.0433 |
| GCGACCCC | 0.0569 |
| CGAAAGCG | -0.0626 |
| CACGGGGG | 0.171 |
| TGACCTCA | -0.148 |
| CTTGGCAA | -0.299 |
| CAATGCTG | -0.223 |
| GGAGTACA | -0.00417 |
| CAAAAGCG | -0.0161 |

| Sequence | PBM E-score |
| --- | --- |
| GGAATTCA | 0.174 |
| ACAAAACT | 0.00035 |
| CGTCGTAC | -0.112 |
| ACTGGAGC | -0.056 |
| GGCACGAA | -0.0672 |
| CAGATCTG | -0.0317 |
| AATTAAGT | 0.0515 |
| CGACAAAC | -0.0374 |
| AATTCAGA | -0.111 |
| CTGCAAGC | -0.206 |
| CCAGCAGA | -0.0116 |
| CATCGGAG | 0.0478 |
| CTGATCAA | -0.0352 |
| AATCTAGG | -0.0668 |
| ACAGTGTG | -0.189 |
| AGCGTGTA | -0.101 |
| CCAAAAGG | -0.243 |
| GTTGATCA | 0.0338 |
| GAATAGAC | -0.218 |
| GTGGGTGA | 0.179 |
| ACTGATGA | -0.185 |
| GAAACCGA | 0.11 |
| CCTCAATC | 0.0825 |
| ACATAATA | 0.0902 |
| AACGGAGA | 0.243 |

| Sequence | PBM E-score |
| --- | --- |
| ATATCGCG | 0.257 |
| CCTAGCCC | -0.0864 |
| AAAGATGT | -0.0757 |
| GAGGAGCC | -0.0654 |
| CGTTGATC | -0.0265 |
| CACAGGCA | -0.115 |
| CGCGTGAG | 0.0757 |
| AGCGAGCT | 0.126 |
| AGGTTCAC | 0.0101 |
| AAACTACT | 0.0125 |
| GACCGGTA | -0.0279 |
| CAATCTAA | -0.0346 |
| AGTGTATA | -0.26 |
| GAGTTCGC | 0.103 |
| ACTCCAGG | -0.113 |
| GCTAGTAA | 0.0102 |
| CGCCTTAG | -0.0386 |
| CTCCACTC | -0.226 |
| AACGCCCA | -0.107 |
| CAGAAACC | 0.0609 |
| CGTTCGGA | 0.414 |
| CACAGGGA | -0.0576 |
| AGCTGTCA | -0.105 |
| AACGGCTC | 0.0795 |
| ACGCGTGA | 0.154 |

| Sequence | PBM E-score |
| --- | --- |
| ACTGTGGC | -0.16 |
| CGTGCGTC | 0.126 |
| CATTCACC | 0.195 |
| CAAGGCTG | -0.364 |
| GGCAGTCA | 0.0564 |
| AACGTACA | -0.122 |
| GGTAACTA | 0.0937 |
| CGGCCGGC | 0.371 |
| CCTAAAAG | -0.347 |
| CAGGAAAG | -0.278 |
| GCGGCTCC | 0.111 |
| AGCACCCG | 0.196 |
| CCGTGGCA | 0.249 |
| CGCTTAGC | 0.0147 |
| ACGAATAT | 0.0203 |
| GACAGCGA | -0.188 |
| GGATCACC | 0.0544 |
| CTTAATTC | -0.044 |
| GGTTATTA | 0.0103 |
| ATCACCCA | -0.0491 |
| GTACGACA | -0.147 |
| GGAATCCC | 0.308 |
| ACCTATTG | -0.217 |
| CAACGTGC | -0.0526 |
| ATATAGCG | 0.00013 |

| Sequence | PBM E-score |
| --- | --- |
| CTCCGTCC | 0.247 |
| AGCACCAT | -0.224 |
| AGCTCTAT | -0.16 |
| AGGTAAAC | 0.0171 |
| CGTGCAAG | 0.0356 |
| CATATCCG | 0.301 |
| GAATCCAC | -0.111 |
| ATGACCAC | -0.0139 |
| GATTCAAC | 0.187 |
| GTGCGGAA | 0.366 |
| GGACCATA | 0.0499 |
| AATTCCGC | 0.397 |
| AAAAGCAT | -0.142 |
| ACGCATTC | 0.0991 |
| CACAGATA | -0.265 |
| AGGGACAC | 0.0216 |
| GGGGCTTA | -0.159 |
| CAGTCTGC | -0.173 |
| AAACACCG | 0.103 |
| ACGATAGC | -0.0446 |
| AGCGACGC | -0.0316 |
| ACTTTAGA | -0.0766 |
